Experimental data from PubChem BioAssay (NCI).
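These data come from cells grown in 96-well plates and exposed to compound for 48 hours at five concentrations. The concentration for 50% growth inhibition is given as GI50. TGI is the concentration that stops growth completely.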

Each compound was assayed on NCI-H322M lung (assay: NCI anticancer screen, dose series, 48 h).

Structure (SMILES) | GI50 [nM] | TGI [µM]
O=C1c2c(c3c4cc(O)ccc4oc3c3[nH]c4ccccc4c23)C(=O)N1O | 1140 | 6.1
Cn1ccnc1C(=O)/C=C/c1ccc(CNC(=O)c2ccc(Cl)cc2)cc1 | 1990 | 4
C=C(C)C(=O)O[C@H]1C[C@@]2(C)OC(=CC2=O)/C(CO)=C\[C@H]2OC(=O)C(=C)[C@H]12 | 1510 | > 3.33
NC(=S)n1c(=O)n(-c2cccc(C(F)(F)F)c2)c(=O)c2cc(-c3ccc(F)cc3F)ccc21 | 2120 | 8.89
CC1=C(CN(O)C(N)=O)C2=C(C)C3(CC3)[C@](C)(O)C(=O)C2=C1 | 1980 | 7.93
CCN1C(=O)N(CC)C2SC(N/N=C/c3ccccc3)=NC21 (configuration not stated) | 1060 | > 100
